# Measurements from the supplement of paper PMC9433436.
# ± gives the standard deviation of the averaged measurements. Over roughly 4,100 sequences, “relative kcat/Km (krel) vs genomic leader AAAGAU” has its median near 1.7; the highest 2% begin near 6.5. Only a part is listed here, and it is no random draw.
# Target: T1, E. coli RNase P holoenzyme (M1 P RNA + rnpA protein) (UniProt P0A7Y8)
# T1 sequence: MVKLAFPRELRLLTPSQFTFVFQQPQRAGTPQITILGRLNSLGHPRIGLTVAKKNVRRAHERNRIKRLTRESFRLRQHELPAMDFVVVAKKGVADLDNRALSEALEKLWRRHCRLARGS
# Assay: relative kcat/Km (krel) vs genomic leader AAAGAU (relative (reference leader = 1)); higher = faster RNase P cleavage
# Method: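 HTS-Kin: a pool of ptRNA-Met (21C construct) with all 4096 combinations of 5' leader nucleotides N(-6) to N(-1) was processed in vitro by E. coli RNase P (P RNA + rnpA/C5 protein) under multiple-turnover conditions at 37 C, pH 8, 17.5 mM MgCl2. Residual substrate was Illumina-sequenced at several fractions reacted, and relative kcat/Km (krel) was computed by internal competition kinetics, calibrated to the genomic leader (AAAGAU = 1). The listed hexamer is the varied N(-6)..N(-1) leader (DNA letters), and it sits between a fixed 5' stem-loop flank (GCAUGCACGAAAGUGCGUGCUAUGAA) and the mature tRNA-Met starting GGCUACGUAGCUCAGUUGG. Two technical replicates are averaged.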
# [1] = fraction of substrate reacted: ~9-10% (9.79% repeat 1, 9.1% repeat 2)
# [2] = fraction of substrate reacted: ~13-16% (15.68% repeat 1, 13.17% repeat 2)
# [3] = fraction of substrate reacted: ~26-29% (28.66% repeat 1, 26.4% repeat 2)
Sequence,relative kcat/Km [1],relative kcat/Km [2],relative kcat/Km [3]
AAAGAC,1.83 ± 0.76,2.21 ± 0.32,2.74 ± 0.42
CTTCAT,4.07 ± 1.5,4.78 ± 0.63,6.67 ± 2.6
TGATTA,2.2 ± 0.59,2.91 ± 0.12,3.73 ± 1.7
CCGTAA,3.37 ± 1.6,3.36 ± 1.1,4.6 ± 1.9
GTTCAC,3.88 ± 0.89,4.82 ± 0.92,6.76 ± 2.6
CCACGT,,0.313 ± 0.19,
CAGGAA,1.95 ± 1.2,1.51 ± 0.021,2.24 ± 0.82
ACCGGT,,,1.78 ± 1.1
CGATAA,3.35 ± 0.75,3.7 ± 1.2,5.94 ± 3
ACTGAG,1.16 ± 0.68,,1.12 ± 0.33
CCGCAT,2.8 ± 0.84,2.91 ± 0.48,4.09 ± 1.3
GCAGGA,,0.416 ± 0.17,0.936 ± 0.67
GGTCTC,0.785 ± 0.12,0.509 ± 0.09,1.14 ± 0.2
AGTCTC,2.08 ± 0.19,2.58 ± 0.26,3.44 ± 0.9
GACTGG,,,0.312 ± 0.28
CTCAGG,1.96 ± 1.2,1.21 ± 0.29,2.45 ± 0.18
AATTGT,,,1.5 ± 1.2
ACGAGC,1.54 ± 0.27,1.74 ± 0.63,1.95 ± 0.42
AAGTCC,1.69 ± 0.61,1.95 ± 0.29,2.1 ± 0.11
GAAATG,,,1.39 ± 0.18
TGGCAG,,,1.02 ± 0.66
TTTTCT,2.69 ± 0.86,3.69 ± 0.91,4.94 ± 1.8

Sequence,relative kcat/Km [1],relative kcat/Km [2],relative kcat/Km [3]
TACAGC,3.82 ± 2,4.94 ± 0.45,
ACAGAC,1.89 ± 0.77,3.1 ± 0.47,3.42 ± 0.9
TAAGCA,1.03 ± 0.76,1.4 ± 0.22,1.54 ± 0.22
GTACAA,1.88 ± 1.1,2 ± 0.32,3.16 ± 1.6
AGTACT,2.34 ± 1.3,2.42 ± 0.095,3.74 ± 1.6
GAACTA,0.781 ± 0.45,1.6 ± 0.51,1.55 ± 0.37
GTCTGC,3.58 ± 1.3,4.94 ± 1.2,7.11 ± 3.3
ATTAGT,,,2.02 ± 1.9
CCCGGA,1.41 ± 0.36,1 ± 0.26,1 ± 0.27
CATACA,2.18 ± 1.1,1.98 ± 0.059,2.54 ± 0.85
TCTTAC,4.07 ± 1.8,4.47 ± 0.29,6.39 ± 1.9
TGAACC,1.62 ± 1.1,1.56 ± 0.31,2.48 ± 0.68
TGAATA,1.93 ± 0.86,1.59 ± 0.1,2.38 ± 1
CACTGC,3.89 ± 1.6,4.53 ± 1.3,6.06 ± 1.9
TTGTCG,,,1.07 ± 0.3
AAACCA,0.558 ± 0.15,0.733 ± 0.54,0.88 ± 0.078
GCCCGA,3.27 ± 1.2,3.68 ± 0.61,5.54 ± 2.1
CATGCC,1.89 ± 0.25,1.43 ± 0.76,2.15 ± 1.1
ATGTCG,,,1.1 ± 0.13
ATAATC,2.28 ± 1.6,1.55 ± 0.12,1.97 ± 0.51
TATATC,2.8 ± 1.7,2.65 ± 0.28,3.66 ± 1.3
TGCCCT,1.75 ± 0.94,2.15 ± 1.1,2.34 ± 0.99

Sequence,relative kcat/Km [1],relative kcat/Km [2],relative kcat/Km [3]
GCGTGA,0.413 ± 0.4,0.685 ± 0.29,1.42 ± 0.34
GAGTTC,1.41 ± 0.47,1.26 ± 0.38,1.74 ± 0.74
GTGCAG,1.19 ± 1,,1.058 ± 0.006
AGGCAG,1.19 ± 1,0.898 ± 0.22,1.95 ± 0.36
CTCTGT,0.825 ± 0.31,1.81 ± 1.4,2.05 ± 1.6
GTATTG,,,1.75 ± 0.3
TAAGTG,,,0.321 ± 0.023
ATAGCT,1.05 ± 0.27,1.53 ± 0.29,1.25 ± 0.14
ATGCAA,0.826 ± 0.51,0.904 ± 0.38,1.32 ± 0.2
GCTAAT,0.911 ± 0.23,1.14 ± 0.37,1.87 ± 0.48
CGTGCC,1.41 ± 0.84,1.73 ± 1.1,1.83 ± 0.35
GCAATG,,,1.35 ± 0.34
AACGCT,1.66 ± 1.2,1.13 ± 0.28,2.05 ± 0.63
TCTAAT,3 ± 1.6,3.77 ± 0.8,4.46 ± 2
ACCTTT,2.86 ± 0.55,3.87 ± 0.96,5.07 ± 1.9
ACGTCT,1.95 ± 0.33,2.23 ± 0.95,3 ± 0.77
TGAGAT,0.754 ± 0.15,0.98 ± 0.33,1.44 ± 0.34
ATACTT,1.93 ± 1.3,1.97 ± 0.58,2.62 ± 1.1
TGACAT,2.4 ± 0.31,3.8 ± 1.1,5.84 ± 2.8
GCTACT,1.29 ± 0.45,0.602 ± 0.054,1.58 ± 0.79
GCTGCC,1.37 ± 0.5,0.461 ± 0.12,0.965 ± 0.29
CGGTTT,,1.13 ± 0.27,1.05 ± 0.88

Sequence,relative kcat/Km [1],relative kcat/Km [2],relative kcat/Km [3]
CAAGTT,0.913 ± 0.56,0.891 ± 0.12,1.05 ± 0.45
TAGTAC,4.35 ± 1.3,5.28 ± 0.82,
ACGTAT,2.73 ± 1.2,3.73 ± 1.2,5 ± 1.8
GAATCC,1.22 ± 1.1,1.8 ± 0.32,1.645 ± 0.0062
CTTCAG,,1.26 ± 0.073,2.21 ± 0.1
TGTGTA,1.79 ± 1.2,1.02 ± 0.46,1.43 ± 0.65
CCCTTA,2.76 ± 0.36,3.38 ± 1.1,4.7 ± 1.5
GCCGCT,1.31 ± 0.67,,1.9 ± 0.66
AAAAGG,,,0.378 ± 0.039
GATAAG,,1.35 ± 0.65,2.29 ± 0.6
TCGACG,,,2.23 ± 0.3
ACACTA,1.82 ± 0.75,1.53 ± 0.19,1.73 ± 0.22
GGGGGC,,,1.59 ± 1.6
TAATCC,1.12 ± 0.074,1.55 ± 0.32,2.4 ± 0.91
CCCGCG,1.15 ± 0.018,,2.27 ± 0.032
TAGTAG,1.88 ± 1.1,1.81 ± 0.36,3.72 ± 1.2
TGAGGA,0.562 ± 0.032,,1.42 ± 0.78
ACCGGG,,0.518 ± 0.4,
GCTCTT,1.4 ± 1.4,1.16 ± 0.71,1.481 ± 0.0086
CTTTCT,3.15 ± 0.75,3.3 ± 1,4.15 ± 0.95
GCCGAG,1.93 ± 1.2,1.4 ± 0.4,2.96 ± 0.7
TTGGGC,1.37 ± 1.2,0.775 ± 0.68,

Sequence,relative kcat/Km [1],relative kcat/Km [2],relative kcat/Km [3]
GCCGTG,,0.363 ± 0.24,
GTAGTA,1.14 ± 0.63,1.19 ± 0.34,1.38 ± 0.23
CCCCCC,2.3 ± 0.57,2.83 ± 1.3,2.97 ± 1.2
GACATT,3.42 ± 0.26,4.33 ± 1.3,6.4 ± 3.1
ACGCCC,2.16 ± 0.76,2.28 ± 0.84,3.21 ± 1.2
CGAGAC,3.33 ± 0.08,2.84 ± 1.4,4 ± 2.3
AGCTTG,,,1.254 ± 0.0075
TTAAAT,3.03 ± 1.4,2.972 ± 0.016,4.14 ± 1.4
TCTGAC,2.82 ± 0.24,3.41 ± 1,3.99 ± 2.1
CACACC,2.49 ± 1.9,2.8 ± 0.45,4.67 ± 1.6
GCCTGA,2.14 ± 0.69,4.01 ± 0.52,5.28 ± 2.4
GGGGGA,,,1.61 ± 1.4
TGGAGA,,,0.862 ± 0.092
TCGGAG,0.959 ± 0.8,0.391 ± 0.23,0.613 ± 0.14
CACGAA,4.26 ± 1.8,6 ± 1.6,
ATACAC,2.97 ± 1.6,3.29 ± 0.21,4.7 ± 1.6
CACTGA,2.94 ± 1.2,3.71 ± 0.65,5.8 ± 1.7
ACTGTT,,0.629 ± 0.32,0.808 ± 0.1
